Results published in PubChem BioAssay AID463173 (ICCB-Longwood Screening Facility, Harvard Medical School, 2010).
Hit rate of the full screen: of about 52,000 compounds, about 1,700 (3.3%) were called active. Rule as the data show it: active = survival mostly below about 52% (no sharp cut-off); inactive = mostly above about 56%. This is one part of the list.

Test system: Wild type
Experiment: S. aureus survival, RN4220 and DeltatarO strains – OD600, teichoic acid synthesis inhibitors, primary screen (AID 463173)
Conditions: S. aureus RN4220 wild type/DeltatarO growth, OD600, 18 h, active compounds read low, screened at 18.75 µg/mL (by protocol)

**Q.** Which survival does the source give for `COC(=O)c1ccc(NC(=O)Cn2c(=O)oc3ccccc32)cc1` here?
**A.** inactive: 80%

**Q.** With `CCN(c1ccc(OC)cc1)S(=O)(=O)c1ccc2[nH]c3c(c2c1)CCCCC3` as the compound, how does the survival read?
**A.** inactive: 87%

**Q.** For `COc1ccc(N2CC(NC(=O)C3CCCCC3)CC2=O)cc1` (stereo not drawn), which survival is on record?
**A.** inactive: 80%

**Q.** Which survival does the source give for `CCn1c(SCC(=O)Nc2cc(C)ccc2F)nnc1-c1ccccc1O` here?
**A.** inactive: 63%

**Q.** How did the survival turn out when `COc1ccc(CC(=O)N2CC(=O)Nc3ccc(F)cc3C2c2ccccc2)cc1` (stereo not drawn) was run?
**A.** inactive: 76%

**Q.** With `CCOC(=O)CNC(=O)N1CCN(S(=O)(=O)c2ccc3c(ccn3C)c2)CC1` as the compound, how does the survival read?
**A.** active: 0%

**Q.** Which survival does the source give for `CCCOc1ccc(C2c3c(oc4ccccc4c3=O)C(=O)N2c2nnc(C(C)C)s2)cc1` (stereo not drawn) here?
**A.** inactive: 59%

**Q.** `CC1CCCCN1C(=O)c1cccc(C(=O)N2CCCCC2C)c1` (stereo not drawn) was tested. Which survival did it give?
**A.** inactive: 109%

**Q.** Which survival does the source give for `CNC(=O)N(O)c1ccccc1` here?
**A.** inactive: 114%

**Q.** With `CC(=O)c1ccc(NC(=O)C2CCN(S(=O)(=O)c3ccc4[nH]c5c(c4c3)CCCCC5)CC2)cc1` as the compound, how does the survival read?
**A.** inactive: 71%

**Q.** `COc1ccccc1CNC(=O)c1ccc(N2CCCC2)c(NC(=O)NCc2ccc(C)cc2)c1` was tested. Which survival did it give?
**A.** inactive: 60%

**Q.** `Cc1ccccc1CNC(=O)Cn1c(=O)c2cccn2c2cccnc21` was tested. Which survival did it give?
**A.** inactive: 85%

**Q.** `CCc1ccc(CNC(=O)C2CCN(c3nn4cc(-c5ccc(OC)cc5)nc4s3)CC2)cc1` was tested. Which survival did it give?
**A.** inactive: 81%

**Q.** `COc1ccc(C2=NC(c3ccccc3)=Nc3ccc(C)cc3N2)cc1` was tested. Which survival did it give?
**A.** inactive: 88%

**Q.** With `COC(=O)c1ccccc1NC(=O)c1ccc(CN2CC(=O)N3CCCCC3C2=O)cc1` (stereo not drawn) as the compound, how does the survival read?
**A.** inactive: 67%

**Q.** Which survival does the source give for `CN1CCN(C(=O)c2ccc3c(c2)N(Cc2ccc(F)cc2)C(=O)c2ccccc2S3(=O)=O)CC1` here?
**A.** inactive: 85%

**Q.** For `COc1ccc(NC(=O)CSc2nnc(-c3ccncc3)n2-c2ccccc2)cc1`, which survival is on record?
**A.** inactive: 73%

**Q.** How did the survival turn out when `COc1ccccc1N1CCN(CC(O)COc2ccc(Cl)c(C)c2)CC1` (stereo not drawn) was run?
**A.** inactive: 66%

**Q.** For `O=C(CSc1n[nH]c(-c2ccc(F)cc2)n1)N1CCN(c2ccc(F)cc2)CC1`, which survival is on record?
**A.** active: -6%

**Q.** `CCOC(=O)c1cc(S(=O)(=O)Nc2ccccc2)[nH]n1` was tested. Which survival did it give?
**A.** inactive: 73%

**Q.** For `CCC(C)NC(=O)c1c2c(nc3ccccc13)C(=O)N(C1CCCCC1)C2` (stereo not drawn), which survival is on record?
**A.** inactive: 80%

**Q.** Which survival does the source give for `CCOC(=O)N[C@H](Cc1c[nH]c2ccccc12)C(=O)Nc1cccc(Cl)c1` here?
**A.** inactive: 124%

**Q.** Which survival does the source give for `COc1ccc(OC)c(NC(=O)c2nc(S(=O)(=O)Cc3ccc(F)cc3)ncc2Cl)c1` here?
**A.** active: -3%

**Q.** How did the survival turn out when `COc1ccc(C(=O)c2cn(CC(=O)Nc3cc(C)ccc3C)c3nc(C)ccc3c2=O)cc1` was run?
**A.** inactive: 146%

**Q.** How did the survival turn out when `CCOCCCN(Cc1ccco1)C(=O)c1cc2c(s1)-c1c(C)cccc1OC2` was run?
**A.** active: 12%

**Q.** How did the survival turn out when `CC(C)Oc1ccc(CNC(=O)C2=Cc3ccccc3OC2)cc1` was run?
**A.** inactive: 60%

**Q.** For `O=C(Oc1ccc(F)cc1)N1CCOCC1`, which survival is on record?
**A.** inactive: 107%

**Q.** How did the survival turn out when `CCc1ccc(C2CC(=O)Nc3c2c(=O)n(C)c2ncnn32)cc1` (stereo not drawn) was run?
**A.** inactive: 142%

**Q.** For `COc1ccc(N2CCN(C(CNC(=O)c3ccc(OC)c(OC)c3)c3cccnc3)CC2)cc1` (stereo not drawn), which survival is on record?
**A.** inactive: 81%

**Q.** For `NC(=O)C1CCN(c2csc3ccc(F)cc3c2=O)CC1`, which survival is on record?
**A.** inactive: 70%

**Q.** `CCn1c(CN2CCN(C)CC2)nc2cc(NC(=O)c3ccc([N+](=O)[O-])cc3)ccc21` was tested. Which survival did it give?
**A.** inactive: 86%

**Q.** For `CCOc1ccc(S(=O)(=O)N2CCCCC2C)c2ccccc12` (stereo not drawn), which survival is on record?
**A.** inactive: 115%

**Q.** Which survival does the source give for `CCCCSc1nnc2c(n1)OC(c1ccc(Br)s1)Nc1ccccc1-2` (stereo not drawn) here?
**A.** active: 9%

**Q.** How did the survival turn out when `Cc1ccc(NC(=O)CN(Cc2ccccc2)S(=O)(=O)c2ccc3nc(C)sc3c2)c(C)c1` was run?
**A.** inactive: 84%

**Q.** For `Cc1ccc(-c2nc(CSc3nnc(C)n4c3cc3occc34)c(C)o2)cc1`, which survival is on record?
**A.** inactive: 91%

**Q.** For `CCCCOC(=O)c1ccc(-n2nnc3c(sc4nc(C)cc(C)c43)c2=O)cc1`, which survival is on record?
**A.** inactive: 102%

**Q.** Which survival does the source give for `CN(C)c1ccc(CNC(=O)CCCN2C(=O)c3cccnc3Oc3ccc(Cl)cc32)cc1` here?
**A.** inactive: 68%

**Q.** For `COc1ccc(CNC(=O)c2c(O)nc3c(C)cccn3c2=O)cc1`, which survival is on record?
**A.** inactive: 76%

**Q.** Which survival does the source give for `CC(C)Cn1cc(NC(=O)N2CCN(c3cccc(C(F)(F)F)c3)CC2)c2ccccc2c1=O` here?
**A.** inactive: 68%

**Q.** With `Cc1cccc2nc(-c3ccccn3)c(Nc3ccccc3)n12` as the compound, how does the survival read?
**A.** active: 21%

**Q.** Which survival does the source give for `COc1cc2nc(Nc3cccc(F)c3)nc(N)c2cc1OC` here?
**A.** inactive: 89%

**Q.** `CCOc1ccc(-c2nc(-c3ccccc3)c(-c3ccccc3)[nH]2)cc1OCC` was tested. Which survival did it give?
**A.** inactive: 163%

**Q.** With `O=S(=O)(NCCc1nnc2ccc(SCc3ccccc3Cl)nn12)c1ccccc1` as the compound, how does the survival read?
**A.** inactive: 76%

**Q.** For `Cc1cc(N2CCC(C)CC2)nc2ccc(NC(=O)Cc3ccccc3Br)cc12`, which survival is on record?
**A.** inactive: 64%

**Q.** `Cc1ccc2c(CC(=O)N(Cc3ccc(N(C)C)cc3)Cc3ccco3)coc2c1C` was tested. Which survival did it give?
**A.** inactive: 70%

**Q.** With `Cc1ccc2oc(-c3ccc(C)c(NC(=O)/C=C/c4ccco4)c3)nc2c1` as the compound, how does the survival read?
**A.** inactive: 80%

**Q.** `O=C(NCc1ccccc1Cl)c1nnc(Cc2cccc(F)c2)o1` was tested. Which survival did it give?
**A.** inactive: 87%

**Q.** With `COc1cc2c(cc1N)CCCC2` as the compound, how does the survival read?
**A.** inactive: 110%

**Q.** For `O=C1CSC2(C(=O)N(Cc3cccc(C(F)(F)F)c3)c3ccccc32)N1c1ccc(F)c(F)c1` (stereo not drawn), which survival is on record?
**A.** inactive: 68%

**Q.** `Cc1ccc(CNC(=O)Cn2ccn(-c3cccc(Cl)c3)c(=O)c2=O)cc1` was tested. Which survival did it give?
**A.** inactive: 85%

**Q.** For `N#Cc1ccccc1CSc1nnc(-c2ccc(Br)cc2)o1`, which survival is on record?
**A.** inactive: 73%

**Q.** `COc1cccc(-c2cc(C(F)(F)F)n3ncc(C(=O)OC(C)C)c3n2)c1` was tested. Which survival did it give?
**A.** inactive: 78%

**Q.** With `CCc1ccc(OCC(=O)N(Cc2ccc(C(C)C)cc2)C2CCS(=O)(=O)C2)cc1` (stereo not drawn) as the compound, how does the survival read?
**A.** inactive: 54%

**Q.** With `CCCOc1ccc(C2C(=O)N(C3CCC(C)CC3)CC(=O)N2CCc2ccccc2)cc1OC` (stereo not drawn) as the compound, how does the survival read?
**A.** inactive: 129%

**Q.** How did the survival turn out when `Cc1ccc(-c2noc(CNC(=O)c3ccc(C)c(Cl)c3)n2)cc1` was run?
**A.** inactive: 91%

**Q.** For `O=C(Nc1ccccc1C(F)(F)F)c1ccc(F)c(S(=O)(=O)N2CCc3ccccc3C2)c1`, which survival is on record?
**A.** inactive: 83%

**Q.** With `Cc1ccc(-n2c(C)cc(/C=C(\C#N)C(=O)Nc3ccc(C)c(C)c3)c2C)cc1` as the compound, how does the survival read?
**A.** inactive: 67%

**Q.** How did the survival turn out when `CCN(CC)C(=O)C1=C(C)Nc2nc3ccccc3n2C1c1cccc(OC)c1` (stereo not drawn) was run?
**A.** inactive: 86%
